# According to the supplement of paper PMC8728848:
# The other results are listed elsewhere or left out.
# B1: AT5G01260(PC)(40) (Arabidopsis thaliana), Q9LFB0 (protein)
# chain: MIGIGRTLTSSSPSKIILEDLPPGIYRYGTEIFTSVPRKTFHHIKFLRLDSAQSSRILKPVPLRSSSIKDSQVNVEDEEIEASNKTVRVRFQLRKECVFGEHFFIVGDDPVFGGLWDPETALPLNWSDGNVWTVDLDLPVGRLVEFKLLLKAQTGEILWQPGPNRALETWETNKTIRICEDWDNADLQMMIEEDFVPYTNISSIGSEDEDEVLGSVQQNSSVVAVENAGYVSDESAQNSSFSIQSEKTMEPSNGALTAREVIKEAMFTEEESPVLVPGLIPLSDLDNEQVEVINEGKAETFPEVDKKQEPKAERNKKAKVKAISLFEKSEQEAVKSVEQRQYNAVEEEQQRLETEPLGTPDVLFENDIQWGRRTLYKLLSNFRLF
# Key:
# Test in all cases: glycan array binding signal (z-score within array); higher = stronger binding
# Details in all cases: glycan notation: IUPAC condensed, linker removed
# [1] = molecular target: GlcNAc(b1-3)Gal(b1-4)GlcNAc(b1-3)Gal(b1-4)GlcNAc(b1-2)Man(a1-3)[GlcNAc(b1-3)Gal(b1-4)GlcNAc(b1-3)Gal(b1-4)GlcNAc(b1-2)Man(a1-6)]Man(b1-4)GlcNAc(b1-4)GlcNAc
# Summary of the method: (§1)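 Glycan array data came from 3228 arrays in the Consortium for Functional Glycomics database, and only arrays with an available protein sequence were kept. Glycan names were put into IUPAC-condensed notation, and columns mapping to the same glycan were averaged. The binding signal is a within-array Z-score, averaged across arrays of one protein sequence run at different concentrations or buffers and across linkers. A negative Z-score can be read as non-binding.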
# [2] = molecular target: GlcNAc(b1-3)Gal(b1-4)GlcNAc(b1-3)Gal(b1-4)GlcNAc(b1-2)Man(a1-3)[GlcNAc(b1-3)Gal(b1-4)GlcNAc(b1-3)Gal(b1-4)GlcNAc(b1-2)Man(a1-6)]Man(b1-4)GlcNAc(b1-4)[Fuc(a1-6)]GlcNAc
# Summary of the method: as §1
# [3] = molecular target: GlcNAc(b1-3)Gal(b1-4)GlcNAc(b1-3)Gal(b1-4)GlcNAc(b1-2)[GlcNAc(b1-3)Gal(b1-4)GlcNAc(b1-3)Gal(b1-4)GlcNAc(b1-6)]Man(a1-6)[GlcNAc(b1-3)Gal(b1-4)GlcNAc(b1-3)Gal(b1-4)GlcNAc(b1-2)Man(a1-3)]Man(b1-4)GlcNAc(b1-4)[Fuc(a1-6)]GlcNAc
# Summary of the method: as §1
# [4] = molecular target: GlcNAc(b1-3)Gal(b1-4)GlcNAc(b1-3)Gal(b1-4)GlcNAc(b1-3)Gal(b1-4)GlcNAc(b1-2)Man(a1-3)[GlcNAc(b1-3)Gal(b1-4)GlcNAc(b1-3)Gal(b1-4)GlcNAc(b1-3)Gal(b1-4)GlcNAc(b1-2)Man(a1-6)]Man(b1-4)GlcNAc(b1-4)GlcNAc
# Summary of the method: as §1
# [5] = molecular target: GlcNAc(b1-3)Gal(b1-4)GlcNAc(b1-3)Gal(b1-4)GlcNAc(b1-3)Gal(b1-4)GlcNAc(b1-2)Man(a1-3)[GlcNAc(b1-3)Gal(b1-4)GlcNAc(b1-3)Gal(b1-4)GlcNAc(b1-3)Gal(b1-4)GlcNAc(b1-2)Man(a1-6)]Man(b1-4)GlcNAc(b1-4)[Fuc(a1-6)]GlcNAc
# Summary of the method: as §1
# [6] = molecular target: GlcNAc(b1-3)Gal(b1-4)GlcNAc(b1-3)Gal(b1-4)GlcNAc(b1-3)Gal(b1-4)GlcNAc(b1-2)[GlcNAc(b1-3)Gal(b1-4)GlcNAc(b1-3)Gal(b1-4)GlcNAc(b1-3)Gal(b1-4)GlcNAc(b1-6)]Man(a1-6)[GlcNAc(b1-3)Gal(b1-4)GlcNAc(b1-3)Gal(b1-4)GlcNAc(b1-3)Gal(b1-4)GlcNAc(b1-2)Man(a1-3)]Man(b1-4)GlcNAc(b1-4)[Fuc(a1-6)]GlcNAc
# Summary of the method: as §1
# [7] = molecular target: GlcNAc(b1-3)Gal(b1-4)GlcNAc(b1-3)Gal(b1-4)GlcNAc(b1-3)Gal(b1-4)GlcNAc(b1-3)Gal(b1-4)GlcNAc(b1-2)Man(a1-3)[GlcNAc(b1-3)Gal(b1-4)GlcNAc(b1-3)Gal(b1-4)GlcNAc(b1-3)Gal(b1-4)GlcNAc(b1-3)Gal(b1-4)GlcNAc(b1-2)Man(a1-6)]Man(b1-4)GlcNAc(b1-4)GlcNAc
# Summary of the method: as §1
# [8] = molecular target: GlcNAc(b1-3)Gal(b1-4)GlcNAc(b1-3)Gal(b1-4)GlcNAc(b1-3)Gal(b1-4)GlcNAc(b1-3)Gal(b1-4)GlcNAc(b1-2)Man(a1-3)[GlcNAc(b1-3)Gal(b1-4)GlcNAc(b1-3)Gal(b1-4)GlcNAc(b1-3)Gal(b1-4)GlcNAc(b1-3)Gal(b1-4)GlcNAc(b1-2)Man(a1-6)]Man(b1-4)GlcNAc(b1-4)[Fuc(a1-6)]GlcNAc
# Summary of the method: as §1
# [9] = molecular target: GlcNAc(b1-3)Gal(b1-4)GlcNAc(b1-3)Gal(b1-4)GlcNAc(b1-3)Gal(b1-4)GlcNAc(b1-3)Gal(b1-4)GlcNAc(b1-2)[GlcNAc(b1-3)Gal(b1-4)GlcNAc(b1-3)Gal(b1-4)GlcNAc(b1-3)Gal(b1-4)GlcNAc(b1-3)Gal(b1-4)GlcNAc(b1-6)]Man(a1-6)[GlcNAc(b1-3)Gal(b1-4)GlcNAc(b1-3)Gal(b1-4)GlcNAc(b1-3)Gal(b1-4)GlcNAc(b1-3)Gal(b1-4)GlcNAc(b1-2)Man(a1-3)]Man(b1-4)GlcNAc(b1-4)[Fuc(a1-6)]GlcNAc
# Summary of the method: as §1
# [10] = molecular target: GlcNAc(b1-3)Gal(b1-4)GlcNAc(b1-3)Gal(b1-4)GlcNAc(b1-3)GalNAc
# Summary of the method: as §1
# [11] = molecular target: GlcNAc(b1-3)Gal(b1-4)GlcNAc(b1-3)GalNAc
# Summary of the method: as §1
# [12] = molecular target: GlcNAc(b1-3)Gal(b1-4)GlcNAc(b1-3)[GlcNAc(b1-3)Gal(b1-4)GlcNAc(b1-3)]GalNAc
# Summary of the method: as §1
# [13] = molecular target: GlcNAc(b1-3)Gal(b1-4)GlcNAc(b1-6)[Gal(b1-3)]GalNAc
# Summary of the method: as §1
# [14] = molecular target: GlcNAc(b1-3)Gal(b1-4)GlcNAc(b1-6)[GlcNAc(b1-3)Gal(b1-3)]GalNAc
# Summary of the method: as §1
# [15] = molecular target: GlcNAc(b1-3)Gal(b1-4)GlcNAc(b1-6)[GlcNAc(b1-3)]Gal(b1-4)GlcNAc
# Summary of the method: as §1
# [16] = molecular target: GlcNAc(b1-3)GalNAc
# Summary of the method: as §1
# [17] = molecular target: GlcNAc(b1-3)Man
# Summary of the method: as §1
# [18] = molecular target: GlcNAc(b1-3)[GlcNAc(b1-4)][GlcNAc(b1-6)]GlcNAc
# Summary of the method: as §1
# [19] = molecular target: GlcNAc(b1-3)[GlcNAc(b1-6)]Gal(b1-4)GlcNAc
# Summary of the method: as §1
# [20] = molecular target: GlcNAc(b1-3)[GlcNAc(b1-6)]GalNAc
# Summary of the method: as §1
# [21] = molecular target: GlcNAc(b1-4)Gal(b1-4)GlcNAc
# Summary of the method: as §1
# [22] = molecular target: GlcNAc(b1-4)GlcNAc
# Summary of the method: as §1
# [23] = molecular target: GlcNAc(b1-4)GlcNAc(b1-4)GlcNAc
# Summary of the method: as §1
# [24] = molecular target: GlcNAc(b1-4)GlcNAc(b1-4)GlcNAc(b1-4)GlcNAc(b1-4)GlcNAc
# Summary of the method: as §1
# [25] = molecular target: GlcNAc(b1-4)GlcNAc(b1-4)GlcNAc(b1-4)GlcNAc(b1-4)GlcNAc(b1-4)GlcNAc
# Summary of the method: as §1
# [26] = molecular target: GlcNAc(b1-4)[GlcNAc(b1-6)]GalNAc
# Summary of the method: as §1
# [27] = molecular target: GlcNAc(b1-6)Gal(b1-4)GlcNAc
# Summary of the method: as §1
# [28] = molecular target: GlcNAc(b1-6)GalNAc
# Summary of the method: as §1
# [29] = molecular target: GlcNAc6S(b1-3)Gal(b1-4)GlcNAc
# Summary of the method: as §1
# [30] = molecular target: Kdn(a2-3)Gal(b1-3)GalNAc
# Summary of the method: as §1
# [31] = molecular target: Kdn(a2-3)Gal(b1-3)GlcNAc
# Summary of the method: as §1
# [32] = molecular target: Kdn(a2-3)Gal(b1-4)Glc
# Summary of the method: as §1
# [33] = molecular target: Kdn(a2-3)Gal(b1-4)GlcNAc
# Summary of the method: as §1
# [34] = molecular target: Kdn(a2-3)Gal(b1-4)[Fuc(a1-3)]GlcNAc
# Summary of the method: as §1
# [35] = molecular target: Kdn(a2-6)Gal(b1-4)GlcNAc
# Summary of the method: as §1
# [36] = molecular target: Man(a1-2)Man(a1-2)Man(a1-3)Man
# Summary of the method: as §1
# [37] = molecular target: Man(a1-2)Man(a1-2)Man(a1-6)[Man(a1-3)]Man
# Summary of the method: as §1
# [38] = molecular target: Man(a1-2)Man(a1-3)Man
# Summary of the method: as §1
binder,measurement,setting,value
B1,glycan array binding signal (z-score),[1],0.666
same,glycan array binding signal (z-score),[2],0.497
same,glycan array binding signal (z-score),[3],0.144
same,glycan array binding signal (z-score),[4],0.239
same,glycan array binding signal (z-score),[5],-0.141
same,glycan array binding signal (z-score),[6],-0.177
same,glycan array binding signal (z-score),[7],-0.508
same,glycan array binding signal (z-score),[8],-0.228
same,glycan array binding signal (z-score),[9],0.133
same,glycan array binding signal (z-score),[10],-0.021
same,glycan array binding signal (z-score),[11],0.047
same,glycan array binding signal (z-score),[12],0.401
same,glycan array binding signal (z-score),[13],0.195
same,glycan array binding signal (z-score),[14],-0.71
same,glycan array binding signal (z-score),[15],-1.02
same,glycan array binding signal (z-score),[16],-0.005
same,glycan array binding signal (z-score),[17],-0.086
same,glycan array binding signal (z-score),[18],0.016
same,glycan array binding signal (z-score),[19],-0.382
same,glycan array binding signal (z-score),[20],0.081
same,glycan array binding signal (z-score),[21],-0.569
same,glycan array binding signal (z-score),[22],-0.477
same,glycan array binding signal (z-score),[23],0.078
same,glycan array binding signal (z-score),[24],-0.693
same,glycan array binding signal (z-score),[25],-0.319
same,glycan array binding signal (z-score),[26],0.541
same,glycan array binding signal (z-score),[27],-0.662
same,glycan array binding signal (z-score),[28],0.069
same,glycan array binding signal (z-score),[29],1.26
same,glycan array binding signal (z-score),[30],-0.723
same,glycan array binding signal (z-score),[31],-0.457
same,glycan array binding signal (z-score),[32],-0.386
same,glycan array binding signal (z-score),[33],-0.013
same,glycan array binding signal (z-score),[34],-0.372
same,glycan array binding signal (z-score),[35],0.202
same,glycan array binding signal (z-score),[36],-0.288
same,glycan array binding signal (z-score),[37],0.803
same,glycan array binding signal (z-score),[38],-0.013
